# Experimental data: PubChem BioAssay AID624296 (National Center for Advancing Translational Sciences (NCATS), 2012)
# In all, about 350,000 compounds went through this assay and about 9,900 (2.8%) were called active. The shares of active, inactive and inconclusive entries below differ from those in the screen. Calls come from the whole dose curve; as a rule, active = well fitted activation curve with a large enough effect; inconclusive = small, poorly fitted or top-dose-only effect; inactive = no such curve, though single readings can be large or run the other way. No potency is given beside an inconclusive call; the fits are too rough.
# Assay: A quantitative high throughput screen for small molecules that induce DNA re-replication in MCF 10a normal breast cells. Note: nearly all actives have a fitted effect of over 50% in size.
# Details: MCF 10A DNA re-replication, Hoechst nuclear intensity, 48 h; series mostly up to 46.1 µM
# Potency is the fitted concentration of half-maximal effect; tags give direction and shape of the fitted curve.
row,Compound,Potency
1,COc1ccccc1N1CCN(C(=O)C(=O)c2cn(CC(=O)N3CCCCCC3)c3ccccc23)CC1,"inconclusive [activator, full curve, poor fit]"
2,CC1C(=O)N2CCCc3cc(NC(=O)c4ccccc4F)cc1c32 (stereo unspecified),inactive
3,COc1ccc(C(=O)C2CCCN(Cc3cccn3-c3nccs3)C2)cc1OC (stereo unspecified),inactive
4,Cc1cccc(NC(=O)c2nc[nH]c2C(=O)N[C@H](C)c2ccccc2)c1,"inconclusive [activator, single point]"
5,N#Cc1ccccc1Sc1ccccc1C(=O)OCc1nnc(-c2ccccc2)o1,"inconclusive [activator, partial curve, poor fit]"
6,CSc1nc(N)nc(SCC(=O)Nc2cccc(F)c2)c1C#N,"inconclusive [activator, partial curve]"
7,COc1ccc(Nc2nc(C)nc3sc4c(c23)CCC4)cc1O,"inconclusive [activator, partial curve]"
8,CCOC(=O)c1oc2ccc3c(c2c1C)C(=O)CC1(CCN(C(=O)OCC)CC1)O3,inactive
9,O=C(CN1CCC(n2nnc3cc(C(F)(F)F)ccc32)CC1)Nc1ccc2c(c1)OCCO2,inactive
10,CCOC(=O)C1=C(C)NC(C)=C(C(=O)OCC)C1c1ccccc1C=CC(=O)OC(C)(C)C,"inconclusive [activator, full curve, poor fit]"
11,C#CCOCCOCCOCCNc1nc(N2CCN(C(=O)CCCCCCCCCCNC(=O)Cn3cc(C[C@@H](C)O)nn3)CC2)nc(N2CCN(C(=O)CCCCCCCCCCNC(=O)[C@@H]([C@H](C)O)n3cc(C)nn3)CC2)n1,inactive
12,COc1cc2nc(C)sc2cc1SC,inactive
13,COC(=O)[C@]1(C)N[C@H](c2ccc(-c3ccc(Cl)c(Cl)c3)c(OC)c2)[C@@H]2C(=O)N(C)C(=O)[C@@H]21,"inconclusive [activator, single point]"
14,CN(C)S(=O)(=O)c1cccc(NC(=O)CSc2cccc3cccnc23)c1,"inconclusive [activator, single point]"
15,CCOC(=O)c1ccc(-n2ccnc2)c(NC(=O)c2ccc(C(C)(C)C)cc2)c1,"inconclusive [activator, full curve, poor fit]"
16,COc1ccc(-c2nsc3c(N4CCCCC4C)ncnc23)cc1 (stereo unspecified),"inconclusive [activator, partial curve, poor fit]"
17,CCC(OC(=O)C(CC(C)C)NC(=O)c1ccccc1)C(=O)Nc1nnc(C)s1 (stereo unspecified),inactive
18,Cn1cccc1C1NC(=O)c2c(sc3c2CCC(C(C)(C)C)C3)N1 (stereo unspecified),"inconclusive [activator, partial curve, poor fit]"
19,O=c1c2ccccc2sc2nc(CCl)nn12,"inconclusive [activator, single point]"
20,COc1ccccc1C=C1SC(=S)NC1=O,inactive
21,CN(C(=O)C1CCCCC1)C1(C)CCS(=O)(=O)C1 (stereo unspecified),inactive
22,CSc1ccccc1NC(=S)Nc1cccc(C(F)(F)F)c1,"inconclusive [activator, partial curve, poor fit]"
23,O=C(Nc1ccc(N2CCOCC2)cc1)c1ccc([N+](=O)[O-])o1,active: 4.61 µM

row,Compound,Potency
1,O=C1N[C@@H](c2ccccc2)COC(=O)[C@@H](Cc2ccc(F)cc2)C/C=C\C[C@H]1CC(=O)N(CCO)Cc1ccccc1,"inconclusive [activator, partial curve]"
2,CCOC(=O)c1cnc(SCCc2ccccc2)nc1N,inactive
3,CCCCC(=O)N/C(N)=N/c1nc2ccccc2o1,inactive
4,C=CCn1c(-c2ccccc2)nc2nc3ccccc3nc21,"inconclusive [activator, partial curve, poor fit]"
5,Cc1ccc(S(=O)(=O)N(C)CCN(C)S(=O)(=O)c2ccc(C)cc2)cc1,inactive
6,CCN1CCN(CC(O)COc2ccc(C)c(C)c2)CC1 (stereo unspecified),"inconclusive [activator, partial curve, poor fit]"
7,Cc1nnc(-c2ccc(Oc3ccc(C)c(C)c3)c([N+](=O)[O-])c2)o1,"inconclusive [activator, partial curve, poor fit]"
8,Cc1cc(NC(=O)CSc2nnc(C(C)N(C)C)n2Cc2ccccc2)no1 (stereo unspecified),inactive
9,Cc1cc(OCc2cc(C(=O)N(C)C(C)c3ccccn3)no2)cc(C)c1Cl (stereo unspecified),"inconclusive [activator, partial curve, poor fit]"
10,C=C1CCC[C@]2(C)C[C@H]3OC(=O)C(CN[C@@H](C)c4ccccc4)[C@H]3CC12 (stereo partly specified),"inconclusive [activator, single point]"
11,Cc1ccccc1C(=O)Nc1ccc(N2CCCCCC2)cc1,active: 18.4 µM
12,COc1ccc(OC)c(CNC(=O)COc2cc(=O)n(C)c3ccccc23)c1,inactive
13,C/C(=N\NC(N)=S)c1ccc2c(c1)OCCO2,inactive
14,Cc1ccc(NC(=O)C[n+]2cc(-c3ccc(C)cc3)n3c2CCC3)cc1,inactive
15,S=C(Nc1ccccc1)Nc1nc2ccccc2n1CCOc1ccc(Br)cc1,"inconclusive [activator, single point]"
16,Cc1cc(C2C(C#N)=C(N)SC(N)=C2C#N)c(C)s1,"inconclusive [activator, single point]"
17,CCOC(=O)C(C)Sc1nnc2c3ccccc3n(C)c2n1 (stereo unspecified),active: 1.84 µM
18,CN(C)/C=C/C(=O)/C=C/c1cn(-c2ncc(C(F)(F)F)cc2Cl)c2ccccc12,active: 3.66 µM
19,O=c1[nH]c(CN2CCN(c3ccccc3)CC2)nc2scc(-c3ccccc3)c12,active: 5.17 µM
20,C=CCOc1ccccc1/C=C/C(=O)O,inactive
21,C=CCNc1ncnc2c1cnn2-c1ccc(Cl)cc1,"inconclusive [activator, partial curve, poor fit]"
22,CNC(=S)N/N=C/c1c(C)c(C(=O)c2ccc(F)cc2)n2ccccc12,inactive
23,COc1c(C=O)c2c(c(OC)c1OC)-c1ccc(OC)c(=O)cc1C(NC(C)=O)CC2 (stereo unspecified),"inconclusive [activator, full curve, poor fit]"
